From PubChem BioAssay AID1745853 (National Center for Advancing Translational Sciences (NCATS), 2022)
Some of the results follow. Shown are side measurements of this screen, not its main read-out; they come without a call. Square brackets hold non-standard residues; d marks the D form. Peptide text beside a SMILES is read from it. * marks the point of attachment. PhLac = O=C(O)[CH](O)Cc1ccccc1; NMeV = CN[CH](C(=O)O)C(C)C; Cbz = O=C(OCc1ccccc1)*; CH2F = FC*

Legend:
Test in all cases: Primary Screen for Target Class Profiling of Small Molecule Inhibitors of Methyltransferases
[1] = target: Glycine N-methyltransferase (Homo sapiens) (UniProt Q14749); conditions: purified enzyme, MTase-Glo SAH luminescence; measured here: GNMT inhibition; at 40 µM; stronger effect = lower value
How it was run: (§1)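 Each enzyme was assayed with SAM and its substrate. SAH formation detected by MTase-Glo luminescence; single-point 40 uM screen[…].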

[2] = target: Guanidinoacetate N-methyltransferase (Homo sapiens) (UniProt Q14353); conditions: purified enzyme, MTase-Glo SAH luminescence; measured here: GAMT inhibition; at 40 µM; stronger effect = lower value
How it was run: as §1

[3] = target: Histamine N-methyltransferase (Homo sapiens) (UniProt P50135); conditions: purified enzyme, MTase-Glo SAH luminescence; measured here: HNMT inhibition; at 40 µM; stronger effect = lower value
How it was run: as §1

[4] = target: Nicotinamide N-methyltransferase (Homo sapiens) (UniProt P40261); conditions: purified enzyme, MTase-Glo SAH luminescence; measured here: NNMT inhibition; at 40 µM; stronger effect = lower value
How it was run: as §1

[5] = target: Phenylethanolamine N-methyltransferase (Homo sapiens) (UniProt P11086); conditions: purified enzyme, MTase-Glo SAH luminescence; measured here: PNMT inhibition; at 40 µM; stronger effect = lower value
How it was run: as §1
% is scaled to controls: 0 for no effect and ±100 for the full control effect.

Compound | activity change, negative = inhibition [1] [%] | activity change, negative = inhibition [2] [%] | activity change, negative = inhibition [3] [%] | activity change, negative = inhibition [4] [%] | activity change, negative = inhibition [5] [%]
CCc1ccccc1NS(=O)(=O)c1ccc2[nH]c3c(c2c1)CCCC3 | 1.36 | 0 | 4.72 | -21.2 | 2.46
O=C(C1CCCC1)N1CCCC(c2nn[nH]n2)C1 (stereo not given) | -0.048 | -3.92 | 1.76 | -7.27 | -6.97
O=C1NC(Cc2ccc(O)cc2)C(=O)N2CCCC12 (stereo not given) | -2.25 | -7.28 | 5.28 | -17.1 | -7.36
COC(=O)c1cc2n(n1)CC(C)(C(=O)NC1CCCCC1)N(CCc1cccs1)C2=O (stereo not given) | 1.13 | 4.57 | 7.55 | -3.02 | 0.731
CCCn1c(=O)c2ccc(C(=O)NC(C)C)cc2n2c(=O)n(CC(N)=O)nc12 | 3.92 | 0 | 2.48 | 4.36 | 2.09
Cc1cccc(-c2nnn3c2nc(NC2CCCC2)c2ccccc23)c1 | -4.14 | 0 | 1.69 | -6.5 | -5.81
CC1CCC(NC(=O)C2(C)Cn3c(nc4ccccc43)C(=O)N2Cc2cccc(Cl)c2)CC1 (stereo not given) | 2.85 | 0 | 0.866 | -4.62 | -3.49
CC[n+]1c(/C=C/C=C2/N(C)c3ccccc3C2(C)C)sc2ccccc21 | -61.4 | -47.9 | -72.8 | -75.6 | -54
CCc1ccc(C(=O)NC(Cc2c[nH]c3ccccc23)C(=O)OCC(=O)c2ccc(C)cc2)cc1 (stereo not given) | 12.6 | 0 | 9.9 | 1.68 | 3.98
COc1cccc([S+](=O)([O-])N2CC(N3CCc4ccccc43)C2)c1 | -5.99 | 1.02 | -0.211 | -4.34 | -0.372
Cc1ccc(CNC(=O)c2ncn3c2C(=O)N(C2CC2)C(C)(C(=O)NC2CCCC2)C3)cc1 (stereo not given) | -10.1 | -1.06 | -10.5 | -11.2 | -7.74
CCNC(=O)[C@@H]1C[C@H](N)CN1C(=O)C(C)(C)Oc1ccc(C)cc1 | 0.965 | -2.57 | 1.67 | 2.47 | 1.2
CS(=O)(=O)N1CCC(NC(=O)c2[nH]ncc2NC(=O)c2c(Cl)cccc2Cl)CC1 | -6.6 | -8.08 | 3.36 | -25.8 | 1.13
C=C1CC2(C(=O)O)CC1CCC2C1(C)CCCC2(C)C(=O)OC(O)C21 (stereo not given) | 2.74 | 7.19 | 7.74 | -9.37 | 3.78
COc1cccc(Cn2nc3n(Cc4ccccc4)c(=O)c4ccc(C(=O)NC(C)C)cc4n3c2=O)c1 | 7.21 | 1.23 | 7.4 | 6.21 | 7.13
COC[C@H]1C[C@@H](NC2CCN(C(C)=O)CC2)[C@H](O)[C@@H]1O | -2.18 | -1.94 | -2.3 | -4.74 | -12.4
CCC(C)NC(=O)c1ccc2c(=O)n(CC(C)C)c3nn(CC(=O)c4ccc(C)cc4)c(=O)n3c2c1 (stereo not given) | 1.79 | 0 | 6.96 | -5.69 | -1.44
COc1ccc([C@@H]2N[C@H](C(=O)O)Cc3c2[nH]c2ccccc32)cc1CN1CCN(c2ccccc2F)CC1 | -11.9 | -3.18 | -21.1 | -24.9 | -10.3
CSc1cccc(N2C(=O)c3cc(-c4ccco4)nn3CC2(C)C(=O)NC2CCCCCC2)c1 (stereo not given) | -1.78 | 2.51 | -6.51 | -1.74 | -5.99
CC(C)OCCCn1c(=O)c2ccccc2n2c(=O)n(CC(=O)NC3CCCCC3)nc12 | 4.08 | 1.92 | 10 | 3.76 | 6.3

Compound | activity change, negative = inhibition [1] [%] | activity change, negative = inhibition [2] [%] | activity change, negative = inhibition [3] [%] | activity change, negative = inhibition [4] [%] | activity change, negative = inhibition [5] [%]
CCCn1c(=O)c2ccc(C(=O)NC3CCCC3)cc2n2c(=O)n(CC(=O)c3ccccc3)nc12 | -0.639 | 0 | 0.848 | 0.402 | 3.41
COc1ccc(OC)c2c1cc1n2CC(C)(C(=O)NC2CCCCC2)N(Cc2cccs2)C1=O (stereo not given) | -14.2 | 0.23 | 7.23 | 2.04 | -1.95
CCc1cc2c(cc3n2CC(C)(C(=O)NC2CCCCC2)N(Cc2ccccc2F)C3=O)s1 (stereo not given) | 0.087 | 4.19 | 4.49 | 1.41 | -1.41
CC(=O)Nc1cccc(CN2CCC(N3CCCNC3=O)CC2)c1 | -1.32 | -10.3 | -1.9 | -14.9 | -11.6
Cc1cnc(C2CCC2)n1CC1CCN(C(=O)COCc2ccccc2)C1 (stereo not given) | -4.05 | 1.49 | -22.5 | -0.664 | -0.499
CCCCN1C(=O)c2cc3ccc(OC)cc3n2CC1(C)C(=O)NC1CCCCC1 (stereo not given) | 1.79 | 2.77 | 5.95 | -2.73 | 0.458
CSc1cccc(N2C(=O)CSc3c(c4ccccc4n3C)C2C(=O)NCCC(C)C)c1 (stereo not given) | 1.54 | 3.55 | -5.31 | -7.65 | -0.649
COC(=O)CC[C@H](NC(=O)[C@H](CC(C)C)NC(=O)OCc1ccccc1)C(=O)N[C@@H](Cc1cnc[nH]1)C(=O)N[C@@H](CC(=O)OC)C(=O)CF (Cbz-LE(OMe)HD(OMe)-CH2F) | 2.8 | 0.65 | 5.42 | -8.91 | 1.46
COc1ccc(CC(=O)N(C)C2CCc3nnc(C)n3CC2)cc1Cl (stereo not given) | -0.196 | 4.31 | 0.193 | -0.275 | 17.9
COCCn1cnnc1CCNC(=O)c1oc2cc(OC)ccc2c1C | -7.53 | -7.09 | -4.49 | -14.7 | 6.27
COCCNc1ncc(-c2ccc(F)cc2)c2c1OCC2 | -9.81 | -2.6 | -1.57 | -14 | 4.44
CCCn1c(=O)c2ccc(C(=O)NC(C)C)cc2n2c(SCC(=O)c3ccc(F)cc3)nnc12 | 2.09 | 3.42 | 1.54 | 2.46 | 1.84
CCCN1C(=O)c2cc(C(=O)NCc3ccccc3OCC)nn2CC1(C)C(=O)NC1CCCC1 (stereo not given) | -1.92 | 0.833 | -6.72 | -6.91 | -5.42
O=C(Cn1nc2n(Cc3ccccc3)c(=O)c3ccccc3n2c1=O)Nc1cccc(Cl)c1 | 0.135 | 5.59 | 3.1 | -3.88 | 1.82
CC(C)Nc1cc(-c2c[nH]c(C(=O)N[C@H](CO)c3cccc(Cl)c3)c2)c(Cl)cn1 | -9.9 | 1.66 | 0.584 | -45.1 | -6.32
Cc1ccc(N(CC2=NCCN2)c2cccc(O)c2)cc1 | 0.794 | 8.86 | -4.16 | -10.8 | 1.52
CCc1ccc(-c2cc3n(n2)CC(C)(C(=O)NC2CCCCC2)N(Cc2ccco2)C3=O)cc1 (stereo not given) | 1.42 | 1.97 | 5.42 | 4.49 | 1.33
O=C(Cn1ccc2cc(S(=O)(=O)N3CCCC3)ccc21)NC1CCCCC1 | 2.74 | 0 | 6.52 | 2.36 | 1.61
NCCCC(=O)N1CCCC2(Cc3ccccc3CN2C(=O)c2cccc(Cl)c2)C1 (stereo not given) | -8.52 | -2.1 | -3.65 | -16.1 | -5.6
CCc1cc2c(cc3n2CC(C)(C(=O)NC2CCCCCC2)N(CCN(CC)CC)C3=O)s1 (stereo not given) | 6.36 | 0 | 3.48 | 6.53 | -3.2

Compound | activity change, negative = inhibition [1] [%] | activity change, negative = inhibition [2] [%] | activity change, negative = inhibition [3] [%] | activity change, negative = inhibition [4] [%] | activity change, negative = inhibition [5] [%]
Cn1cccc1CN1CCC2(C1)C(=NC1CCCC1)NC(=O)N2c1cccnc1 (stereo not given) | -7.81 | -0.726 | 0.198 | -2.29 | 4.05
COc1ccc(CCC(=O)N2CCC3(CC2)CC(C(=O)N2CCOCC2)N(C)C3)cc1 (stereo not given) | 0.785 | 1.2 | 2.66 | -1.27 | 13.5
CCc1ccccc1NC(=O)Cn1nc2n(C(C)C)c(=O)c3ccc(C(=O)NC(C)CC)cc3n2c1=O (stereo not given) | 4.92 | 0 | 8.25 | 0.58 | 6.03
CC(C)OC(=O)N1CCC(COc2cnc3c(ccn3CC(N)=O)c2)CC1 | -4.06 | -0.108 | 0.368 | -4.15 | -15
CC(C)C(C(=O)N1CCCC1C(=O)O)N(C)C(=O)C(O)Cc1ccccc1 (stereo not given) (H-[PhLac]-[NMeV]-Pro-OH; configuration not given here) | 3.5 | 0.439 | 10.2 | -12 | 5.13
COCCN(Cc1ccccc1F)Cc1cc2c(cc1OC)OCO2 | -3.57 | -1.89 | -10.8 | -15.2 | -5.51
CC1(C(=O)Nc2ccc(F)nc2)CCCN1c1nc(Nc2cc(C3CC3)[nH]n2)c2cccn2n1 (stereo not given) | -4.02 | 2.38 | 8.18 | -20.1 | -2.06
Cn1c(=O)c2ccc(C(=O)NC3CCCC3)cc2n2c(=O)n(CC(=O)c3ccc(Cl)cc3)nc12 | 3.85 | 0 | 3.82 | 4.11 | 1.86
CCCn1c(=O)c2ccc(Cl)cc2n2c(SCC(=O)Nc3ccc(OC)cc3)nnc12 | 1.67 | 4.03 | 3.68 | 3.49 | 0.285
CCCn1c(=O)c2ccc(C(=O)NC(C)CC)cc2n2c(=O)n(Cc3ccccc3)nc12 (stereo not given) | 3.97 | 0 | 6.46 | 3.72 | 4.11
Cc1cc(C)cc(NC(=O)CSc2nnc3n(CC(C)C)c(=O)c4ccc(C(=O)NC(C)C)cc4n23)c1 | 3.22 | 0.15 | 9.71 | -4.67 | 5.89
Cc1cnc(CC2CCCN(Cc3ccc(F)cc3F)C2)n1Cc1ccccc1 (stereo not given) | -12.5 | -12.7 | -27.9 | -20.3 | -2.78
COc1cc([C@@H]2Nc3c(Cl)cccc3[C@@H]3C=CC[C@@H]32)cc(Br)c1OC | -12.1 | -2.31 | -13.7 | -19.6 | -19
C/C(=C/CO)CC[C@H]1[C@]2(C)C[C@H](O)CC(C)(C)[C@H]2CC[C@]1(C)O | 0.754 | 5.97 | 10.2 | -6.67 | 2.9
Cc1ccc(CN2C(=O)c3ccccc3CC2(C)C(=O)NCc2ccccc2C)cc1 (stereo not given) | 4.97 | 0 | -0.368 | -4.22 | 2.9
COC(=O)C1=CO[C@@H](O[C@@H]2O[C@H](CO)[C@@H](O)[C@H](O)[C@H]2O)[C@@H]2[C@@H](C)[C@@H](O)C(O)[C@H]12 (stereo not given in full) | 4.99 | 7.53 | 7.21 | -6.9 | -0.859
CN(CCc1ccccn1)C(=O)[C@@]12CCCC[C@H]1N(C)C(=O)CC2 | -1.49 | -2.69 | 0.604 | -0.658 | -0.569
CC(=O)N1CCC(N2CCC[C@H]2c2nc(-c3ccc(-c4ccncc4)nc3)no2)CC1 | -15.4 | -14.4 | -19.4 | -20.9 | -3.35
CC1CCN(c2ncncc2-c2nc(-c3ccccc3)no2)CC1 | -30.2 | -12.3 | -30.2 | -21.3 | -5.33
